Data on 86 sequences can be found in the supplement of paper PMC3334620.

Over roughly 33,000 sequences, “E-score (-0.5 to 0.5)” has its median near -0.036; the highest 2% begin near 0.37. The list shows a part of the results.

For the test, the target named is T1, Yer064c (UniProt P40041).
T1 sequence: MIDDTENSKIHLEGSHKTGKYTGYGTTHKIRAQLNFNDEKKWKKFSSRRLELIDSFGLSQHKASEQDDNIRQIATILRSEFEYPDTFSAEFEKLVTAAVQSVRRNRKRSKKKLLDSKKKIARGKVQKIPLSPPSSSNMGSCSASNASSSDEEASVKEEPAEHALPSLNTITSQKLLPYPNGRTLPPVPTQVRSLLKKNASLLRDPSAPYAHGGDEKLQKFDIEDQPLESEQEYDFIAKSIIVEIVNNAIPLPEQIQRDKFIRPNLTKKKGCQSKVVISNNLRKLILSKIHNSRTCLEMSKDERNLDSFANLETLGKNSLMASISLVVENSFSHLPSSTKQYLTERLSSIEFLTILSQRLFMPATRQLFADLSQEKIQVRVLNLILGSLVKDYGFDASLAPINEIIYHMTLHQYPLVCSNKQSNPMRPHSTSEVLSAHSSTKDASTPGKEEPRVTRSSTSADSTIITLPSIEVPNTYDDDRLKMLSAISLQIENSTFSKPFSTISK
Briefly: PBM E-score (8-mer binding enrichment) (E-score (-0.5 to 0.5)); higher = stronger / more preferred TF binding; most listed sequences are background and not binding sites. The note with it: protein concentration: 200 nM; construct: GST-full length. A digest of the protocol:
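Detection of bound protein used fluorescent anti-GST, with scans normalised by masliner. The proteins were GST-tagged yeast transcription factors applied at about 100-200 nM to universal all-10-mer Agilent arrays made double-stranded by primer extension. Each ungapped eight-base word, pooled with its reverse complement, was scored with an E-score from the Universal PBM Analysis Suite.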
For the sequence ACAGCGCG, the “PBM E-score” value is -0.17.

On to AGGAAGTC, for which the “PBM E-score” value came out at 0.249.

On to AAGGCAAG, for which the “PBM E-score” value is -0.273.

Consider AGTAGATA, for which the “PBM E-score” value turned out to be 0.129.

In the case of AGTAATGA, the “PBM E-score” value was determined as 0.217.

Take CGCGCCTC: the “PBM E-score” value was -0.172.

As to GCCCGACC, the “PBM E-score” value is -0.28.

With AAGTCAGT, the “PBM E-score” value is 0.362.

AGTTGCCC: the “PBM E-score” value worked out at 0.00742.

As to GGGAAAAA, the “PBM E-score” value was -0.0981.

On to AGCCCACC, for which the “PBM E-score” value is -0.259.

On to ACATTGAT, for which the “PBM E-score” value came out at 0.0359.

Turning to GAGGGCGA, the “PBM E-score” value was -0.23.

With CTGATTCC, the “PBM E-score” value came to 0.301.

CAGAGGTC: the “PBM E-score” value is -0.121.

As for CACGCCAC, the “PBM E-score” value was -0.0464.

Take AAGCACGA: the “PBM E-score” value came to 0.0858.

Regarding AAAACAAA, the “PBM E-score” value came to 0.0869.

Consider CGTCACGC, for which the “PBM E-score” value is -0.184.

On to CCCGATCC, for which the “PBM E-score” value was -0.28.

Turning to GCATTTAC, the “PBM E-score” value is -0.0629.

Take AATAGTTG: the “PBM E-score” value is -0.0139.

On to ACACCAAA, for which the “PBM E-score” value is 0.0439.

GCACGTGC: the “PBM E-score” value is -0.277.

As to GCTGGAAC, the “PBM E-score” value is -0.129.

In the case of CGGATTCC, the “PBM E-score” value is -0.204.

On to AGGTAACC, for which the “PBM E-score” value is -0.00596.

As for ATCTTTGA, the “PBM E-score” value turned out to be 0.219.

With GCCGACAA, the “PBM E-score” value was 0.0264.

AAGCCCGT: the “PBM E-score” value is -0.241.

For CTTCAGCA, the “PBM E-score” value was -0.189.

In the case of AAGACTAG, the “PBM E-score” value amounted to 0.338.

With GTCTTGAA, the “PBM E-score” value was 0.204.

As to TAAAAACA, the “PBM E-score” value stood at 0.107.

On to ACCCGATG, for which the “PBM E-score” value was -0.109.

As for GCACAGCC, the “PBM E-score” value is -0.187.

As for CCAAACGC, the “PBM E-score” value was -0.0483.

As for TGGGTAAA, the “PBM E-score” value turned out to be 0.237.

ACGTTGTG: the “PBM E-score” value came out at 0.0216.

Regarding CGGCGACA, the “PBM E-score” value is -0.184.

Regarding AATGGGAG, the “PBM E-score” value is -0.0134.

With GACTCCGA, the “PBM E-score” value stood at 0.417.

On to ACGTCTCC, for which the “PBM E-score” value was -0.0536.

For GAGAAATC, the “PBM E-score” value amounted to 0.0251.

In the case of AATAAACA, the “PBM E-score” value was determined as 0.183.

As for AGGTGGGA, the “PBM E-score” value was -0.185.

For the sequence ACCGCTGA, the “PBM E-score” value came to 0.0866.

As for GGCATATA, the “PBM E-score” value is -0.205.

Take GTTCCAAA: the “PBM E-score” value is -0.00663.

With ACCTCGAC, the “PBM E-score” value was -0.00179.

CTAGGGTA: the “PBM E-score” value was 0.0333.

Consider ATTCTATC, for which the “PBM E-score” value was -0.00335.

With AGGACACC, the “PBM E-score” value was -0.0221.

Turning to AATAGCAG, the “PBM E-score” value is -0.182.

On to AATCGGTG, for which the “PBM E-score” value is -0.051.

As for GATCATGC, the “PBM E-score” value was found to be 0.134.

For the sequence TGAGAAAA, the “PBM E-score” value came to 0.0732.

With GCACTGCC, the “PBM E-score” value was -0.4.

On to CATTTCTC, for which the “PBM E-score” value is -0.0413.

On to AACCCCCA, for which the “PBM E-score” value is -0.309.

In the case of AAACCGAT, the “PBM E-score” value is -0.0973.

Regarding CAGCGGCC, the “PBM E-score” value is -0.309.

For the sequence GCGGCTCA, the “PBM E-score” value is 0.0261.

Take CGTTATAG: the “PBM E-score” value was 0.134.

In the case of ATGTGGTG, the “PBM E-score” value was 0.0728.

ACAACAGA: the “PBM E-score” value is 0.0838.

With ACATATCG, the “PBM E-score” value is -0.147.

For the sequence TACCCGAA, the “PBM E-score” value was -0.0763.

For the sequence CGCACCTA, the “PBM E-score” value was -0.216.

Turning to ATAGGCAG, the “PBM E-score” value was -0.0153.

For CGTACTTC, the “PBM E-score” value was -0.119.

As for GAGGTTCA, the “PBM E-score” value was -0.11.

With AACTTATC, the “PBM E-score” value was -0.0902.

In the case of ATCACCCC, the “PBM E-score” value was 0.276.

Turning to CCTAGCCG, the “PBM E-score” value is -0.324.

On to CTAAAAAC, for which the “PBM E-score” value is -0.0226.

In the case of AGCCCAGA, the “PBM E-score” value is -0.235.

In the case of GCGCGTCC, the “PBM E-score” value is -0.31.

Consider ACTGATTA, for which the “PBM E-score” value was found to be 0.343.

In the case of TCGTGTCA, the “PBM E-score” value was -0.0428.

On to AAACTATG, for which the “PBM E-score” value is 0.0568.

On to ACGTTAAA, for which the “PBM E-score” value was -0.018.

Take CCCTGCGC: the “PBM E-score” value is -0.284.

For the sequence CCACGTAG, the “PBM E-score” value is -0.243.

As for CGTGCTTC, the “PBM E-score” value is -0.175.

For CGTTAAAG, the “PBM E-score” value is -0.037.
